Reference: PubChem BioAssay AID686979 (National Center for Advancing Translational Sciences (NCATS), 2013)
In all, about 420,000 compounds went through this assay and about 50,000 (12%) were called active. This list was built around the results that the source calls inconclusive (neither active nor inactive); the mix of calls is not that of the screen. The call rests on the fitted dose curve; in most records, active means well fitted inhibition curve with a large enough effect; inconclusive means small, poorly fitted or top-dose-only effect; inactive means flat fitted curve, though single readings scatter. Potencies of inconclusive entries are left out as doubtful fits.

Experiment: qHTS for Inhibitors of human tyrosyl-DNA phosphodiesterase 1 (TDP1): qHTS in cells in presence of CPT; further: nearly all actives have a fitted effect of over 55% in size
Details: chicken DT40 Tdp1-/-;hTDP1 cells + 20 nM CPT, ATP luminescence, 48 h; activity change, negative = growth inhibition: at 46.2 µM (top of the series) unless noted
Summary of the method: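 Chicken DT40 Tdp1-/- cells stably complemented with human TDP1 were seeded at 400 cells/well in medium containing 20 nM camptothecin, exposed to pin-transferred compounds, and grown at 37 °C for at least 48 hr. Viability was read as ATP luminescence.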
On the % scale 0 is the no-effect control and ±100 the full control effect; potency means the concentration at half of the fitted maximal effect; tags describe the fitted curve by direction and shape.

Row | Structure (SMILES) | Potency | activity change, negative = growth inhibition
1 | COc1ccc(CN(CC(=O)NCc2ccc(F)cc2)C(=O)CCC(=O)Nc2nccs2)cc1 | inconclusive [inhibitor, single point] | –
2 | O=C(c1ccncc1)N1CCN(S(=O)(=O)c2cccc([N+](=O)[O-])c2)CC1 | – | inactive: -1.19%
3 | O=C(Cn1c(Cn2c(-c3cnccn3)nc3ccccc32)nc2ccccc21)c1ccc(OC(F)(F)F)cc1 | inconclusive [inhibitor, single point] | –
4 | Cc1ccc(C)c(NS(=O)(=O)c2ccc(OCC(=O)NCc3ccco3)cc2)c1 | inconclusive [inhibitor, partial curve] | –
5 | CC(=O)c1cccc(N=Cc2c(O)c3ccccc3oc2=O)c1 | – | inactive: -0.229%
6 | Cc1ccc(S(=O)(=O)N2[C@@H](c3cccc(Cl)c3)C(C(=O)O)=CC[C@H]2c2ccc(C(C)C)cc2)cc1 | – | inactive: -26.3%
7 | O=C(Nc1ccc2c(c1)OCO2)N1CCN(C/C=C/c2ccccc2)CC1 | – | inactive: 0.702%
8 | Cc1ccc(OCCSc2nc3ccc(NC(=O)c4ccc(F)cc4)cc3s2)cc1 | inconclusive [inhibitor, full curve, poor fit] | –
9 | Cc1nc2ccccn2c1C(=O)N/N=C/c1cc(C)n(-c2ccc(Br)cc2)c1C | active: 18.4 µM | –
10 | COCCn1c(=NC(=O)C2COc3ccccc3O2)sc2cc(S(N)(=O)=O)ccc21 (centres undefined) | inconclusive [inhibitor, single point] | –
11 | Clc1cccc(CNc2ccn3nc(-c4ccccc4Cl)cc3n2)c1 | inconclusive [inhibitor, single point] | –
12 | Cc1cccc(-n2ncc3c(NC(C)C)ncnc32)c1 | inconclusive [inhibitor, partial curve] | –
13 | CC/C(=N\NS(=O)(=O)c1ccc(C)cc1)c1ccco1 | – | inactive: 13.6%
14 | Cc1ccc(NC(=O)c2nc[nH]c2C(=O)N[C@H](C)c2ccccc2)cc1 | active: 23.1 µM | –
15 | Cc1cccc(C(C)C)c1NC(=O)C(NS(=O)(=O)c1cccc2nsnc12)c1ccccc1 (centres undefined) | inconclusive [inhibitor, single point] | –
16 | c1ccc(C2=Nn3c(nnc3-c3ccncc3)SC2)cc1 | inconclusive [inhibitor, partial curve, poor fit] | –
17 | Cc1ccc(NC(=O)C2C3/C=C\CCCCC32)cc1 (centres undefined) | inconclusive [inhibitor, partial curve] | –
18 | Cc1cccc2cc(CNCc3ccccc3)c(Cl)nc12 | inconclusive [inhibitor, partial curve, poor fit] | –
19 | CCOC(=O)c1sc(N(Cc2ccccc2)C(=O)COC(=O)c2ccccc2O)nc1C | – | inactive: -28.3%
